Experimental data: PubChem BioAssay AID485344 (National Center for Advancing Translational Sciences (NCATS), 2010)
The whole screen tested about 340,000 compounds, of which about 6,900 (2%) were called active. No stated cut-off is given here; in the data, active means inhibition above about 30%; inactive means below that, where a call was filed. Only a part is listed here, and it is no random draw. Entries without a call were filed so in the source.

Target: D(2) dopamine receptor (Homo sapiens) (UniProt P14416)
UniProt P14416, sequence (P14416 whole entry, looked up): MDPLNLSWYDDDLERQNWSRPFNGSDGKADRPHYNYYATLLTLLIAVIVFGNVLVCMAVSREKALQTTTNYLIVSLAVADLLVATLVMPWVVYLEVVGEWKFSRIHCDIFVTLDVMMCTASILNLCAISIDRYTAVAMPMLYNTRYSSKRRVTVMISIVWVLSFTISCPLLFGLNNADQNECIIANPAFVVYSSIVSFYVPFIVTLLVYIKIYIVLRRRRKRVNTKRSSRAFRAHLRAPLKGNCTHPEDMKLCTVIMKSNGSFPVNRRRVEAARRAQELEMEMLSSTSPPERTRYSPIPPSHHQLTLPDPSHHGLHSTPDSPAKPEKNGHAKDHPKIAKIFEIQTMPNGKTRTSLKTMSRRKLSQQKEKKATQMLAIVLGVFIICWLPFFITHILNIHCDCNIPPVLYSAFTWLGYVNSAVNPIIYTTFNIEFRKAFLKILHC
Test: HTS Assay for Allosteric Antagonists of the Human D2 Dopamine Receptor: Primary Screen for Antagonists; further: 0% is about no effect
Conditions: HEK293 TREx D2 cells, calcium flux, dopamine EC80; at 10 µM; stronger effect = higher value
How it was run: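 Inhibition of EC80 dopamine-driven calcium flux, recorded kinetically, defines activity here; cells are a tetracycline-induced HEK293 T-REx line expressing force-coupled D2.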

Row | SMILES | inhibition
1 | COc1ccc(S(=O)(=O)N2CCC(C(=O)NCc3ccc(C)cc3)CC2)cc1 | active: 34.2%
2 | COc1cccc(CSc2nc3cc(C(=O)NC4CCCC4)ccc3c(=O)n2Cc2ccccc2)c1 | 8.64%
3 | Nc1nnc2c(n1)[nH]c1ccccc12 | 10.5%
4 | COc1cccc(N2CCN(C(=O)c3ccc(Cn4c(=O)[nH]c5cc(OC)c(OC)cc5c4=O)cc3)CC2)c1 | -3.39%
5 | CC1CCc2nc3ncn(Cc4ccccc4C#N)c(=O)c3cc2C1 (stereo not drawn) | -7.95%
6 | Cc1ccc(S(=O)(=O)CCC(=O)O)cc1C | active: 35.5%
7 | O=C(c1ccc2c(c1)N(Cc1ccc(Cl)cc1)C(=O)c1ccccc1S2=O)N1CCOCC1 (stereo not drawn) | -15.4%
8 | Cc1cc(C)c2c(CC(=O)N3CCN(c4cccc(Cl)c4)CC3)coc2c1 | -12%
9 | CCc1ccc(CNc2ncnc3c2nc2n3CCCC2)cc1 | -0.173%
10 | CCc1cccc(NC(=O)Cn2c(=O)ccc3cc(S(=O)(=O)N4CCC(C)CC4)ccc32)c1 | 14.8%
11 | CCOc1ccccc1N1CC(c2nc3ccccc3n2CCOc2ccccc2)CC1=O (stereo not drawn) | 5.26%
12 | Cc1c(O)ccc(NC(=O)/C=C/c2ccccc2)c1C | active: 35%
13 | O=C(CSc1cn(CC(=O)N2CCOCC2)c2ccccc12)Nc1ccccc1F | 21.7%
14 | Cc1ccc(S(=O)(=O)Nc2ccc3c(c2)CCCN3C(=O)c2cccs2)cc1 | 3.47%
15 | O=C(Nc1ccc2nn(-c3ccccc3)nc2c1)c1cc2ccccc2o1 | -0.583%
16 | COc1ccc2oc(=O)cc(CN3CCN(Cc4ccccc4)CC3)c2c1 | -18.3%
17 | CC(=O)N1Cc2ccccc2C(C)CC12CCCC2 (stereo not drawn) | active: 31.2%
18 | CCOc1ccc(S(=O)(=O)N2CCCCC2)cc1NC(=O)Cc1ccsc1 | active: 33.9%
19 | Cc1c(Cl)cccc1NC(=O)c1cnc2sc(N3CCOCC3)nn2c1=O | -11.1%
20 | CCN(c1ccccc1)S(=O)(=O)c1ccc(NC(=O)c2cc(=O)c3cc(C)cc(C)c3o2)cc1 | -11.5%
21 | CCC(=O)N1c2ccccc2CC1C(=O)NCCc1ccccc1C (stereo not drawn) | 12.2%
22 | Cc1ccc(C)c(NC(=O)c2cnn(-c3cccc(F)c3)c2C2CCN(C(=O)OC(C)(C)C)CC2)c1 | 3.15%
23 | CCOc1ccc(NS(=O)(=O)c2ccc(-c3cc(C)no3)s2)cc1 | 3.14%
24 | CC(C)Oc1ccc(CNC(=O)CCCN2C(=O)c3cccnc3Oc3ccc(Cl)cc32)cc1 | -8.77%
25 | CCN(C(=O)c1cc2c(s1)-c1c(C)cccc1OC2)c1ccccc1F | -0.648%

Row | SMILES | inhibition
26 | COc1ccc(CC(=O)N2CCc3cc(OC)c(OC)cc3C2COc2ccc(OC)cc2)cc1 (stereo not drawn) | 20.4%
27 | CCC(=O)N1CCc2cc(Br)cc(S(=O)(=O)Nc3ccc(C)cc3C)c21 | -3.59%
28 | CCCCn1c2ccccc2c2nnc(SCC(=O)NC3=NN=C(c4ccccc4)CS3)nc21 | active: 69.6%
29 | CCOC(=O)c1scc(-c2ccccc2)c1S(=O)(=O)Nc1cc(OC)cc(OC)c1 | -12.2%
30 | CCC1CN(C(=O)N2CCC(C(=O)NCCN(CC)CC)CC2)c2cc(C)ccc2O1 (stereo not drawn) | 2.25%
31 | Brc1ccccc1OCCNCc1ccccc1 | active: 94%
32 | CCc1nc2ccccc2n1CCCCOc1ccc(C)cc1 | -0.921%
33 | CCOc1cc(CNC(=O)c2sc3ncnc(N(C)C4CCCCC4)c3c2C)ccc1OC | -5.35%
34 | CC(=O)c1ccc(NC(=O)Cn2cc(S(=O)(=O)Cc3cccc(Cl)c3)c3ccccc32)cc1 | 1.49%
35 | Cc1cccc(C)c1OCC(=O)NCC1(N(C)C)CCCCC1 | 1.19%
36 | Cc1ccc(N2C(=O)CSC23C(=O)N(CC(=O)NCc2ccccc2)c2ccccc23)cc1C (stereo not drawn) | -11.4%
37 | COCCCNC(=O)c1ccc(NC(=O)c2nsc3ccccc23)cc1 | 6.09%
38 | COc1ccccc1CNC(=O)C1CCC(CNS(=O)(=O)c2ccc3c(c2)CCCC(=O)N3)CC1 (stereo not drawn) | -3.51%
39 | Cc1ccc2c(Sc3ccc(Cl)cc3)c(C(=O)N3CCC(C)CC3)[nH]c2c1 | 9.04%
40 | CCN(CC)CCNC(=O)c1ccc(Cn2c(SCc3ccccc3)nc3cccnc32)cc1 | -1.57%
41 | COc1ccc(CNS(=O)(=O)c2cnc(N)nc2)c(OC)c1 | 7.62%
42 | C=CCc1cccc(/C=N/NC(=O)C[n+]2ccccc2)c1O | active: 52.7%
43 | COc1cc(-c2cc(OC)c3c(C)oc(C)c3c(=O)c2)ccc1OC(=O)c1ccccc1Cl | -0.294%
44 | COc1ccc(OC)c2sc(N3CCN(C(=O)C(C)(C)C)CC3)nc12 | 12.4%
45 | COc1cc(Cl)c(NC(=O)CCS(=O)(=O)c2cc3c(cc2Cl)NC(=O)CO3)c(OC)c1 | 0.136%
46 | Cc1cc(C)c2c(=O)cc(CSCC(=O)Nc3ccccc3Cl)[nH]c2c1 | -15%
47 | Cc1ccc2nc(N3CCN(c4cccc(Cl)c4)CC3)c(-n3nc(C)cc3C)nc2c1 | 23.2%
48 | Cc1cccc(Oc2nc3c(C)cccn3c(=O)c2/C=C(\C#N)c2nc3ccccc3[nH]2)c1 | -8.36%
49 | COc1ccc(CNC(=O)CCn2cccn2)cc1 | -11.6%
50 | O=C(COc1ccc(Br)cc1)Nc1ccc2c(c1)C(=O)NC2=O | active: 33.4%

Row | SMILES | inhibition
51 | Cc1ccccc1C(=O)n1nc(-c2ccco2)nc1NCc1ccc(Cl)cc1 | -8.62%
52 | Cc1ccc(C(C)C)c(OCC(=O)NCC2(N(C)C)CCCCC2)c1 | -5.08%
53 | COc1ccc(CCn2cc3c(c2-c2ccc(Br)cc2)c(=O)n(C)c(=O)n3C)cc1OC | 10.5%
54 | O=C(NCCc1ccccc1Cl)c1ccc(Cn2c(=O)c3cccn3c3cccnc32)cc1 | 16.3%
55 | COc1ccc(-c2nc(C)c(CCNC(=O)C(=O)Nc3ccccc3OC)s2)cc1 | -21.4%
56 | CCOC(=O)C1CCC(CN(Cc2cccc(Br)c2)S(=O)(=O)c2ccc(C)cc2)CC1 (stereo not drawn) | 0.712%
57 | CCc1ccc(C(=O)c2cn(CC(=O)Nc3ccc4c(c3)OCO4)c3cc(OC)c(OC)cc3c2=O)cc1 | 13.7%
58 | CCc1ccccc1NC(=O)c1c(NC(=O)c2ccccc2)sc2c1CCCC2 | 2.49%
59 | Cc1ccc(-c2nnc(SCc3ccccc3C)o2)cc1 | 11%
60 | O=C(COc1ccc(Cl)cc1)Nc1ccc(-c2nc3ccccc3s2)c(O)c1 | -17.4%
61 | Cc1ccc(C)c(N2CCN(C(=O)C3CCCN(S(=O)(=O)c4ccc5c(c4)oc(=O)n5C)C3)CC2)c1 (stereo not drawn) | -11.3%
62 | CCCCCn1c(C(C)NC(=O)c2ccccc2)nc2ccccc21 (stereo not drawn) | 14.6%
63 | COc1ccc(Nc2nc(-c3ccc(C)cc3)nc3ccccc23)c(OC)c1 | -8.66%
64 | CCOc1ccc(-c2nonc2NC(=O)COc2c(C)cc(C)cc2C)cc1OCC | -0.574%
65 | Fc1ccc(-c2noc3ncnc(NCCc4ccccc4)c23)cc1 | -13.9%
66 | COc1ccc2c(c1)c1c(c(=O)n(Cc3ccccc3)c(=O)n1CC(=O)NCc1ccccc1Cl)n2C | 11.9%
67 | CCOc1cc(CNC(=O)C2COc3ccccc3C2)cc(OCC)c1OCC (stereo not drawn) | -13.4%
68 | CCc1nn(CC(=O)NCCc2ccc(OC)cc2OC)c(=O)c2cc3c(OC)cccc3n12 | -8.2%
69 | CCOC(=O)N1CCN(C(=O)Nc2ccccc2)CC1 | active: 30.7%
70 | COc1ccc(NC(=O)Cn2c(SCc3cc(C)ccc3C)nc3ccncc32)c(OC)c1OC | -26%
71 | Cc1c(CCNC(=O)c2ccc(Br)o2)sc2nc(-c3ccc(F)cc3)nn12 | -5.58%
72 | CCOc1ccccc1NC(=O)Cn1cc(C(=O)c2cccc(OC)c2)c(=O)c2ccc(C)nc21 | -2.02%
73 | O=C(Cn1c(=O)c2cccn2c2ccccc21)NCCc1ccccc1 | -12.8%
74 | COc1cc(NC(=O)CN(c2ccc(C)cc2)S(=O)(=O)c2cccc3nonc23)cc(OC)c1 | -26%
75 | CCc1cccc(NC(=O)CSC2=Nc3ccccc3N=C(c3ccc(F)cc3)C2)c1 | 6.49%

Row | SMILES | inhibition
76 | CCOc1ccccc1C(=O)Nc1ccc(S(=O)(=O)Nc2nc(C)cc(C)n2)cc1 | -24.6%
77 | Cc1ccc2nc(NC(=O)COc3ccc(F)cc3)sc2c1 | 18.7%
78 | Cc1ccc(NC(=O)Cn2cnc3sc(C(=O)O)c(C)c3c2=O)cc1Cl | 3.69%
79 | CCN1CCN(c2nc3c(S(=O)(=O)c4ccc(Br)cc4)nnn3c3ccsc23)CC1 | 7.69%
80 | C=CCN(C)CC/C=C1\c2ccccc2CSc2ccccc21 | active: 68.5%
81 | Cc1cc(C)c(NC(=O)Cn2c(=O)n(-c3ccc(CC(=O)NCC4CCCO4)cc3)c(=O)c3ccccc32)c(C)c1 (stereo not drawn) | -4.33%
82 | Cc1ccc(-c2nc3n(n2)C(=O)CC(c2ccc(Cl)cc2)S3)cc1 (stereo not drawn) | -25.5%
83 | Cc1ccc(OCC(=O)OCc2cc(=O)n3nc(-c4cccs4)sc3n2)cc1C | -3.11%
84 | Cc1ccc(C(=O)Nc2sc3c(c2C(=O)NCc2ccco2)CCC(C(C)(C)C)C3)cc1 (stereo not drawn) | 7.44%
85 | O=C(NCc1ccc(F)cc1)c1cc2n(n1)CCCN(Cc1ccc(F)cc1)C2=O | 2.68%
86 | Cc1ccc(C)c(N2CCN(CCCNC(=O)c3cnn(-c4ccccc4Cl)c3C3CCN(C(=O)OC(C)(C)C)CC3)CC2)c1 | 0.837%
87 | CCOc1ccc(Sc2cc(C(=O)NC(C)c3ccccc3)c3ccccc3n2)cc1 (stereo not drawn) | 23.3%
88 | Cc1ccc(OCC(=O)Nc2cc3nn(-c4ccccc4)nc3cc2C)cc1 | 8.05%
89 | Cc1ccsc1CN(C(=O)COc1ccc(Br)cc1)C1CCS(=O)(=O)C1 (stereo not drawn) | -7.2%
90 | Cc1ccc(C(=O)Nc2ccc(NC(=O)c3cccs3)cc2)cc1C | -28.4%
91 | Cc1cc(Cl)ccc1NC(=O)C(=O)NCc1ccco1 | 1.99%
92 | Cc1cccn2c(=O)c(/C=C(\C#N)c3nc4ccccc4[nH]3)c(Oc3ccc(C(C)(C)C)cc3)nc12 | 1.94%
93 | CCOc1ccc(-c2ccc(NS(=O)(=O)c3ccc(C)cc3)cc2)nn1 | 0.566%
94 | COc1ccc(CCCc2nnc(SCC(=O)Nc3ccc(C)cc3)o2)cc1 | 9.82%
95 | O=C1NC(=Nc2ccc(Cl)cc2)/C(=C/c2ccco2)S1 | active: 59.2%
96 | O=C(CCc1nc(-c2cccs2)no1)Nc1cccc([N+](=O)[O-])c1 | 10.7%
97 | Cc1ccc(C)c(N2CCN(C(c3ccccc3)c3nnc(-c4ccccc4F)o3)CC2)c1 (stereo not drawn) | -13.7%
98 | COc1cccc(NC2=CC(c3ccc(C(C)C)cc3)N(c3cccc(OC)c3)C2=O)c1 (stereo not drawn) | -2.43%
